# According to PubChem BioAssay AID1345082 (National Center for Advancing Translational Sciences (NCATS), 2018):
# Where “and” joins values, the source holds several entries; their conditions need not be identical. Identical values can stand only once. About 4,000 (4.3%) of roughly 94,000 compounds were called active. Inconclusive results, whose numbers are uncertain, are shown with a selection of clear calls. Calls follow the shape of the dose curve; as a rule, active = well fitted inhibition curve with a large enough effect; inconclusive = small, poorly fitted or top-dose-only effect; inactive = no such curve, though single readings can be large or run the other way. Potencies beside an inconclusive call are fits to weak or partial responses and may not hold up.
# Assay: Cytotoxic Profiling in NIH 3T3 Cell Line of Diverse Libraries Using Quantitative High-Throughput Screening; also: nearly all actives have a fitted effect of over 55% in size
# Conditions: NIH 3T3 viability, CellTiter-Glo ATP luminescence, 48-72 h; series mostly up to 96.7 µM
# Outline: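 Cytotoxicity is measured as loss of cellular ATP: NIH 3T3 cells (400/well) are exposed to compound for 48 or 72 hr at 37 °C, then CellTiter-Glo luminescence is imaged after 10 min at room temperature.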
# Potency is read from the fitted curve at half-maximal effect; tags tell the direction and shape of the fitted curve.
row,Structure (SMILES),Potency
1,O=C(C1CCCN1C(=O)c1ccc(Cl)nc1)N1CCC(c2nc3ccncc3[nH]2)C1 (centres undefined),inactive
2,CC(C)(C)NC(=O)Cn1ccn2nc(-c3ccccc3)c(CO)c2c1=O,inactive
3,COC(=O)[C@@H]1Cc2c([nH]c3ccccc23)[C@H]2C[C@@H](NCCN(C)C)C[C@@H](c3ccc(F)cc3)N21,active: 14.1 µM
4,OC(c1nc(Nc2cccc(C(F)(F)F)c2)n[nH]1)C1CC1 (centres undefined),"inconclusive: 56.2 µM [inhibitor, partial curve, poor fit]"
5,O=C(O)CCn1ncc2cc(OC3CCN(C(=O)OC4CCCC4)CC3)ccc21,"inconclusive: 14.1 µM [inhibitor, full curve, poor fit]"
6,COc1cccc(CN2CCC(N3CC(OCC4CC4)C34CCCCC4)CC2)n1 (centres undefined),"inconclusive: 28.2 µM [inhibitor, partial curve]"
7,Fc1ccccc1Nc1cnc2ccc(-n3ccnc3)nn12,"inconclusive: 50.1 µM [inhibitor, partial curve]"
8,CCN1c2cc(C(=O)NCc3ccccc3C(F)(F)F)ccc2C(=O)N2CCCCCC21 (centres undefined),"inconclusive: 44.7 µM [inhibitor, partial curve, poor fit]"
9,COc1ccc([C@H]2C[C@@H](O)[C@@H](O)[C@@H]2NCc2cccc(C#N)c2)cc1,active: 89.1 µM
10,Cc1nnc(-c2cc(-c3ccccc3Oc3ccccc3)ccn2)n1C,"inconclusive: 89.1 µM [inhibitor, partial curve]"
11,Cc1ccc(C(=O)NC2CCCN(c3cc(-c4ccc(Cl)cc4)[nH]n3)C2)cn1 (centres undefined),"inconclusive: 44.7 µM [inhibitor, partial curve, poor fit]"
12,N#Cc1cccc(CN2CCCN(S(=O)(=O)c3ccccc3)CCC(=O)NCC2)c1,inactive
13,COc1ccc(CN2C(=O)[C@@H]3C[C@@H](CN3Cc3ccccc3OC)Oc3ccccc32)cc1,inactive
14,CC(O)c1cc2n(n1)CCN(C(=O)C1(c3ccc(Cl)cc3)CCC1)C2 (centres undefined),"inconclusive: 79.4 µM [inhibitor, partial curve, poor fit]"
15,COc1ccc(NC(=O)C2CCc3nnc(CNC(=O)NC(C)(C)C)n32)cc1 (centres undefined),inactive
16,Cc1ccccc1-c1[nH]nc2ncc(-c3cccc(O)c3)nc12,"inconclusive: 17.8 µM [inhibitor, full curve, poor fit]"
17,CCCc1nn(-c2ccccc2)c(=O)n1CC(=O)N(C)Cc1cnn(C)c1C,inactive
18,CSCCNC(=O)c1cc(-c2ccc([S+](C)(=O)[O-])cc2)c2cccn2n1,"inconclusive: 50.1 µM [inhibitor, partial curve, poor fit]"
19,CC(C)NC(=O)c1ccc2oc(-c3ccnc(Cl)c3)nc2c1,inactive
20,COc1ccc(CNC(=O)N2CCC(Cc3ncc(C)n3C(C)C)C2)cc1 (centres undefined),inactive
21,COc1cccc(-c2nc(C3CC(=O)N(c4ccc(C)cc4)C3)no2)c1OC (centres undefined),"inconclusive: 35.5 µM [inhibitor, partial curve]"
22,O=C1CC2(CCN(C(=O)C3CCN(C(=O)C4CC4)CC3)CC2)Oc2ccccc2N1,inactive

row,Structure (SMILES),Potency
1,O=C(NCc1cccc(Cl)c1)C1CN(C2CCCCC2)C(=O)N1 (centres undefined),"inconclusive: 79.4 µM [inhibitor, partial curve]"
2,Cc1nc(N2CCC(C(=O)NCc3ccccc3Cl)CC2)cc(C(F)(F)F)n1,"inconclusive: 20 µM [inhibitor, full curve]"
3,COc1ccc(NC(=O)Cn2cccc2-c2nc(-c3ccccc3)no2)c(OC)c1,"inconclusive: 50.1 µM [inhibitor, partial curve, poor fit]"
4,O=C1NC2(Cc3ccccc31)CN(Cc1c[nH]c3ccccc13)C2,"inconclusive: 31.6 µM [inhibitor, partial curve, poor fit]"
5,Cc1ccc(CN2CC[C@H](c3nc4ccc(C(F)(F)F)cc4[nH]3)C2)cc1,active: 28.2 µM
6,COc1cccc(CNC(=O)C2CCN(c3nccc(Nc4ccccc4Cl)n3)CC2)c1,"inconclusive: 44.7 µM [inhibitor, partial curve, poor fit]"
7,CCc1cccc(NC(=O)Cn2c(C)ccc(NS(=O)(=O)c3ccc(C)cc3)c2=O)c1,inactive
8,CN1CCCCCC(O)c2cc(C(=O)Nc3cccc(OC(F)(F)F)c3)ccc21 (centres undefined),active: 28.2 µM
9,O=C(NCc1ccccc1)C1CCN(c2nccc(Nc3ccccc3Cl)n2)CC1,"inconclusive: 44.7 µM [inhibitor, partial curve, poor fit]"
10,O=C(Cc1cccs1)Nc1ccc2c(N3CCCCC3)ncnc2c1,"inconclusive: 39.8 µM [inhibitor, partial curve]"
11,O=C1NCc2ccccc2CC12CCN(Cc1cc(F)ccc1O)CC2,"inconclusive: 79.4 µM [inhibitor, single point]"
12,O=C(NCc1cccc(F)c1)c1c(OCC2CC2)cc(=O)n2c1CCCCC2,"inconclusive: 70.8 µM [inhibitor, single point]"
13,CCN1C(=O)CCN(C(=O)c2ccnn2CC)CC12CCOCC2,inactive
14,CCCN1CCC(N2CCC3(CC2)CC2C(=O)N(CC)C(=O)N2C3)CC1 (centres undefined),inactive
15,COCCCNc1nc(-c2c(C)noc2C)cc2cc(C(C)C)oc12,"inconclusive: 50.1 µM [inhibitor, partial curve, poor fit]"
16,O=C(NC1CCN(Cc2cccc(-c3cccs3)c2)CC1)c1ccccc1Cl,"inconclusive: 50.1 µM [inhibitor, partial curve, poor fit] and inconclusive: 44.7 µM [inhibitor, partial curve, poor fit]"
17,CCOC(=O)N1CCC(NCc2cccnc2Oc2ccccc2C)CC1,inactive
18,O=C(Nc1ccccc1)c1nc2c(o1)CCN(Cc1ccccn1)CC2,"inconclusive: 89.1 µM [inhibitor, partial curve]"
19,O=C(c1n[nH]c2c1CCCCCC2)N1CCc2c(nc3cc(-c4ccccc4)[nH]n3c2=O)C1,inactive
20,O=C(CCC1CCN(C(=O)c2ccccc2F)CC1)Nc1cccc(Cl)c1,"inconclusive: 50.1 µM [inhibitor, partial curve, poor fit]"
21,CC(=O)N1CCCC(c2[nH]ccc2C(=O)N2CCc3ccccc32)C1 (centres undefined),inactive
22,CN(C)C(=O)c1cccnc1OC1CCN(S(=O)(=O)c2ccc(F)c(Cl)c2)C1 (centres undefined),"inconclusive: 44.7 µM [inhibitor, partial curve, poor fit]"

row,Structure (SMILES),Potency
1,COc1ccc(NC(=O)C2CCN(c3cn[nH]c(=O)c3)C2)cc1 (centres undefined),inactive
2,O=c1c2nc(OCc3ccc(-n4cccn4)cc3)ccc2ncn1Cc1ccccc1,"inconclusive: 35.5 µM [inhibitor, partial curve, poor fit]"
3,Cc1ccc(CN(C(=O)c2ccco2)c2ccc(CC(=O)NCC3CCCO3)cc2)cc1 (centres undefined),inactive
4,O=C(Nc1cccc2ccccc12)O[C@@H]1CO[C@H]2[C@@H]1OC[C@@H]2NC(=S)Nc1ccc(Cl)cc1,"inconclusive: 44.7 µM [inhibitor, partial curve, poor fit]"
5,CNC(=O)Nc1ccc(C)n(CC(=O)N2CCN(c3ccccc3F)CC2)c1=O,inactive
6,O=C(Cc1ccc(C(F)(F)F)cc1)NC1CCN(Cc2ccc(-c3ccsc3)cc2)C1 (centres undefined),"inconclusive: 20 µM [inhibitor, full curve, poor fit]"
7,Cn1ccnc1-c1ccc(N2CCCC(CO)(Cc3cccc(Cl)c3)C2)nn1 (centres undefined),"inconclusive: 17.8 µM [inhibitor, full curve, poor fit]"
8,O=C(C1CN(c2cccc(Cl)c2)C(=O)N1)N1CCOCC1 (centres undefined),"inconclusive: 89.1 µM [inhibitor, partial curve]"
9,C[C@H]1[C@@H]2[C@@H](O)C([C@H](C)C(=O)NC(C)(C)C)CC[C@@]2(C)CC[C@@H]1NS(C)(=O)=O (some centres undefined),"inconclusive: 56.2 µM [inhibitor, partial curve, poor fit]"
10,C=CCCC(=O)N1[C@@H](c2ccccc2)[C@@H](C(=O)OCC)C[C@]12CCCCNC2=O,"inconclusive: 70.8 µM [inhibitor, partial curve, poor fit]"
11,O=C(NCc1cccc(Br)c1)C1CCN(c2cnc3nccnc3c2)CC1,"inconclusive: 50.1 µM [inhibitor, partial curve, poor fit]"
12,COc1ccc2c(c1)CN(CC=C(C)C)C(=O)CCN2CC(O)Cc1ccccc1 (centres undefined),"inconclusive: 44.7 µM [inhibitor, partial curve, poor fit]"
13,CCCNC(=O)CN1C(=O)NC2(CCC(C(C)(C)C)CC2)C1=O (centres undefined),inactive
14,COCC(=O)N1CCC2(C1)C(=O)N(CCc1ccccc1)c1ccccc12 (centres undefined),inactive
15,Cn1cccc1C(=O)NC1CCCN(c2cc(-c3ccc(F)cc3)[nH]n2)C1 (centres undefined),"inconclusive: 44.7 µM [inhibitor, partial curve, poor fit]"
16,Cc1cnc(C)c(N2CCN(C(=O)CCCc3c[nH]c4ccccc34)CC2)n1,"inconclusive: 50.1 µM [inhibitor, partial curve, poor fit]"
17,COCCN(CC1CCCO1)c1nc(CCN)nc2ccccc12 (centres undefined),"inconclusive: 89.1 µM [inhibitor, partial curve, poor fit]"
18,O=C(Nc1ccccc1)N1CCc2c(c3ccccc3n2CC2CC2)C1,"inconclusive: 28.2 µM [inhibitor, partial curve]"
19,CN1CCN(c2ccc3ncc(Nc4ccccc4-c4ccccc4)n3n2)CC1,active: 25.1 µM
20,CN1[C@@H](CCC(=O)NCc2ccco2)CNC(=O)[C@@H]2[C@H]1CCN2Cc1cccc(Cl)c1,"inconclusive: 50.1 µM [inhibitor, partial curve, poor fit]"
